Reference: the supplement of paper PMC4967469
IC50 is the fitted dose that halves viability relative to control wells, and lower means more sensitive; fits outside the tested doses are given as limits. AUC is the area under the same curve over the 256-fold range up to the top dose, as a fraction; the more sensitive the line, the further below 1. For part of these data: The top dose, if marked as inferred, was derived from the fitted curves, not read from the paper. For part of these data: Drugs with an entry number were screened twice under separate entries, and the two screens often disagree.

Assays:
Experiment in all cases: Viability of human cancer cell lines after 72 h of drug (GDSC screen)
LFM-A13 = compound: C/C(O)=C(\C#N)C(=O)Nc1cc(Br)ccc1Br [LFM-A13]; conditions: top dose 16 µM; top dose inferred
Experimental: (§1)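 Human cancer cell lines in 384-well plates, medium with 10% serum, drug for 72 h over a 256-fold dose range (nine 2-fold or five 4-fold steps up to the top dose). Adherent lines were fixed and stained with the nucleic acid dye Syto60, suspension lines read with resazurin; signal relative to control wells, capped at 0 and 100%. One two-parameter sigmoid per drug and line, fitted in a mixed model over all curves with the slope shared within a line.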

T0901317 = compound: O=S(=O)(c1ccccc1)N(CC(F)(F)F)c1ccc(C(O)(C(F)(F)F)C(F)(F)F)cc1 [T0901317]; conditions: top dose 10.24 µM; top dose inferred
Experimental: as §1

TW-37 = compound: CC(C)c1ccccc1Cc1cc(C(=O)Nc2ccc(S(=O)(=O)c3ccccc3C(C)(C)C)cc2)c(O)c(O)c1O [TW-37]; conditions: top dose 5 µM
Experimental: as §1

Bicalutamide = compound: CC(O)(CS(=O)(=O)c1ccc(F)cc1)C(=O)Nc1ccc(C#N)c(C(F)(F)F)c1 [Bicalutamide]; conditions: top dose inferred
Experimental: as §1

MP470 = compound: S=C(NCc1ccc2c(c1)OCO2)N1CCN(c2ncnc3c2oc2ccccc23)CC1 [MP470]; conditions: top dose 20 µM; top dose inferred
Experimental: as §1

AUY922 = compound: CCNC(=O)c1noc(-c2cc(C(C)C)c(O)cc2O)c1-c1ccc(CN2CCOCC2)cc1 [AUY922]; conditions: top dose 0.256 µM; top dose inferred
Experimental: as §1

KIN001-270 = compound: Cc1ccc(Nc2cc(-c3cccc(N4C(=O)c5ccccc5C4=O)c3)ncn2)cc1NS(C)(=O)=O [KIN001-270]; conditions: top dose 20 µM; top dose inferred
Experimental: as §1

Gemcitabine = compound: Nc1ccn([C@@H]2O[C@H](CO)[C@@H](O)C2(F)F)c(=O)n1 [Gemcitabine]; conditions: top dose 1.024 µM
Experimental: as §1

[1] = top dose 1.024 µM, screen: GDSC drug entry 150
[2] = top dose 10 µM, screen: GDSC drug entry 1502

| Cell Line | AUC (LFM-A13) | IC50 (LFM-A13) [µM] | AUC (T0901317) | IC50 (T0901317) [µM] | AUC (TW-37) | IC50 (TW-37) [nM] | AUC (Bicalutamide; [1]) | IC50 (Bicalutamide; [1]) [µM] | AUC (Bicalutamide; [2]) | IC50 (Bicalutamide; [2]) [µM] | AUC (MP470) | IC50 (MP470) [µM] | AUC (AUY922) | IC50 (AUY922) [nM] | AUC (KIN001-270) | IC50 (KIN001-270) [µM] | AUC (Gemcitabine) | IC50 (Gemcitabine) [nM] |
| --- | --- | --- | --- | --- | --- | --- | --- | --- | --- | --- | --- | --- | --- | --- | --- | --- | --- | --- |
| HCT-116 (large intestine, adherent) | 0.985 | > 16 | 0.915 | > 10.2 | 0.32 | 101 | 0.986 | > 1.02 | 0.986 | > 10 | 0.954 | > 20 | 0.808 | 124 | 0.951 | > 20 |  |  |
| K-562 (chronic myeloid leukaemia, suspension) |  |  |  |  | 0.302 | 88.5 |  |  |  |  |  |  |  |  | 0.96 | > 20 | 0.744 | 313 |
| KP-4 (pancreas, adherent) | 0.966 | > 16 | 0.865 | 8.45 | 0.614 | 634 | 0.988 | > 1.02 | 0.972 | > 10 | 0.36 | 0.52 | 0.544 | 21 | 0.986 | > 20 |  |  |
| Mewo (melanoma, adherent) | 0.983 | > 16 | 0.978 | > 10.2 | 0.581 | 545 | 0.984 | > 1.02 | 0.981 | > 10 | 0.917 | > 20 | 0.962 | > 256 | 0.979 | > 20 |  |  |
| SU-DHL-10 (B-cell lymphoma, suspension) |  |  | 0.983 | > 10.2 | 0.552 | 416 |  |  | 0.997 | > 10 | 0.648 | 2.84 |  |  | 0.956 | 19.7 |  |  |
| NCI-H1650 (lung adenocarcinoma, adherent) |  |  |  |  | 0.825 | 4340 |  |  |  |  |  |  |  |  |  |  |  |  |
| YMB-1-E (breast, adherent) |  |  | 0.966 | > 10.2 |  |  |  |  |  |  | 0.876 | > 20 |  |  | 0.957 | > 20 |  |  |
| CHP-134 (neuroblastoma, suspension) |  |  | 0.975 | > 10.2 |  |  |  |  |  |  | 0.789 | 11.6 |  |  | 0.946 | > 20 |  |  |
| NCI-H460 (large cell lung carcinoma, adherent) | 0.985 | > 16 | 0.99 | > 10.2 | 0.52 | 353 | 0.99 | > 1.02 | 0.983 | > 10 | 0.554 | 1.73 | 0.438 | 11 | 0.98 | > 20 |  |  |
| MEL-HO (melanoma, adherent) |  |  |  |  | 0.341 | 112 |  |  | 0.982 | > 10 |  |  |  |  |  |  |  |  |
| UWB1.289 (ovary, adherent) |  |  | 0.97 | > 10.2 | 0.688 | 1380 |  |  | 0.976 | > 10 | 0.967 | > 20 |  |  | 0.956 | > 20 |  |  |
| HCC-366 (non-small cell lung carcinoma, adherent) |  |  |  |  | 0.748 | 1670 |  |  | 0.987 | > 10 |  |  |  |  |  |  |  |  |
| LN-229 (glioma, adherent) | 0.98 | > 16 | 0.987 | > 10.2 | 0.436 | 209 | 0.988 | > 1.02 | 0.985 | > 10 | 0.979 | > 20 | 0.533 | 19.7 | 0.976 | > 20 |  |  |
| MDA-MB-157 (breast, adherent) | 0.987 | > 16 | 0.985 | > 10.2 | 0.662 | 891 | 0.988 | > 1.02 | 0.983 | > 10 | 0.985 | > 20 |  |  | 0.974 | > 20 |  |  |
| OV-17R (ovary, adherent) |  |  | 0.975 | > 10.2 | 0.588 | 599 |  |  | 0.973 | > 10 | 0.58 | 2.26 |  |  | 0.962 | > 20 |  |  |
| OVCA433 (ovary, adherent) |  |  | 0.984 | > 10.2 | 0.593 | 580 |  |  | 0.983 | > 10 | 0.969 | > 20 |  |  | 0.982 | > 20 |  |  |
| MCF7 (breast, adherent) | 0.949 | > 16 | 0.985 | > 10.2 | 0.536 | 392 |  |  |  |  | 0.491 | 1.18 | 0.314 | 4.73 | 0.984 | > 20 |  |  |
| SK-MEL-5 (melanoma, adherent) |  |  | 0.978 | > 10.2 | 0.575 | 525 |  |  | 0.978 | > 10 | 0.892 | > 20 |  |  | 0.983 | > 20 |  |  |
| U-2-OS (osteosarcoma, adherent) | 0.963 | > 16 |  |  | 0.568 | 489 | 0.985 | > 1.02 | 0.982 | > 10 | 0.95 | > 20 | 0.616 | 34.4 | 0.981 | > 20 |  |  |
| T-24 (bladder, adherent) | 0.953 | > 16 | 0.988 | > 10.2 | 0.525 | 364 | 0.988 | > 1.02 | 0.987 | > 10 | 0.981 | > 20 | 0.683 | 50.5 | 0.978 | > 20 |  |  |
| NCI-H2066 (small cell lung carcinoma, adherent) |  |  |  |  | 0.618 | 829 |  |  | 0.967 | > 10 |  |  |  |  |  |  |  |  |
| Hs940-T (melanoma, adherent) |  |  | 0.974 | > 10.2 | 0.573 | 519 | 0.977 | > 1.02 | 0.97 | > 10 | 0.904 | > 20 |  |  | 0.984 | > 20 | 0.615 | 142 |
| SNU-1040 (large intestine, adherent) |  |  | 0.962 | > 10.2 |  |  |  |  | 0.965 | > 10 | 0.913 | > 20 |  |  | 0.969 | > 20 |  |  |
